Experimental data: the supplement of paper PMC10338343
± gives the standard deviation. The entries are a selection whose mix differs from that of the whole data set.

system: MIWI (PIWIL1) piRISC loaded with L1MC piRNA (30 nt); test: pre-steady-state target cleavage rate (min^-1); MIWI and MILI are mouse PIWI proteins and EfPiwi is from a freshwater sponge; tags in brackets are library labels; higher = faster piRNA-guided slicing of the target; settings: guide: L1MC piRNA 5'p-UAACUAAAUACUAUGCAAGCUGUAGGUCCU; auxiliary factor: 500 nM mouse GTSF1
Description: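 Cleave-'n-Seq: a library of target RNAs (target site embedded in constant flanks, ACAGCATTCCGCGTTAGTGATATCCG... 5' flank; DNA-blocked outside the site) at 0.1 nM was incubated with 1 nM active mouse MILI or MIWI piRISC (synthetic 5'-monophosphorylated piRNA guide) with or without 500 nM mouse GTSF1 at 33 °C for 1 min to 16 h. Uncleaved targets were sequenced and normalised to non-target controls, and the pooled three trials were fitted to a burst-and-steady-state model to give the pre-steady-state cleavage rate (min^-1; k3 is constrained to at most 1e-4). Sequence is the target site only; target names encode pairing extent (gX:gY) and contiguous / 1-mismatch / 2-mismatch / bulge geometry. Fits with R² ≤ 0 are excluded.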

Q: UCCACCUACAGCUUGCAAUGUAUUUAGUAA was tested. Which “pre-steady-state target cleavage rate” value did it give?
A: The value was 0.241 ± 0.022.

Q: Which “pre-steady-state target cleavage rate” value does the source give for UGGACCUACAGCUUGCAUAGUACUUUAGUUA here?
A: Its value is 0.645 ± 0.046.

Q: How did the “pre-steady-state target cleavage rate” value turn out when UCCUGCUACUGCUUGCAUAGUAUUAAGUUA was run?
A: Its value is 0.365 ± 0.031.

Q: With UCCUGGAUGUGCUUGCAUAGUAUUUCGUUA as the sequence, how does the “pre-steady-state target cleavage rate” value read?
A: Its value is 0.0898 ± 0.015.

Q: UCCUGCUACAGCUUGUAUAGUAUUUAGUUA was tested. Which “pre-steady-state target cleavage rate” value did it give?
A: The value was 0.716 ± 0.037.

Q: How did the “pre-steady-state target cleavage rate” value turn out when UCCUGGUACACCUUGCAUACUAUUUAGUUA was run?
A: Its value is 0.37 ± 0.12.

Q: UCCUGGAUGUCGAACGAUAGAUUUUAGUUA was tested. Which “pre-steady-state target cleavage rate” value did it give?
A: Its value is less than 0.0001.

Q: With UCCUGGAUGUGUUUGCAUAGUAUUUAGUUA as the sequence, how does the “pre-steady-state target cleavage rate” value read?
A: The value was 0.415 ± 0.033.

Q: For UCCUGGUACAGGUUGCAUAGAAUUUAGUUA, which “pre-steady-state target cleavage rate” value is on record?
A: Its value is 0.302 ± 0.052.

Q: Which “pre-steady-state target cleavage rate” value does the source give for UCCUGGAUGUGCUUGCAUAGCAUUUAGUUA here?
A: The value was 0.119 ± 0.013.

Q: Which “pre-steady-state target cleavage rate” value does the source give for UCCUCCUACAGCAUGCAUACUAUUUAGUUA here?
A: The value was 0.377 ± 0.021.

Q: How did the “pre-steady-state target cleavage rate” value turn out when UCCUGGAUGUGCUUGGAUAGUAUUUAGAUA was run?
A: The value was 0.0371 ± 0.014.

Q: How did the “pre-steady-state target cleavage rate” value turn out when UCCUGGAUGUGCUUGGAUAGUUUUUAGUUA was run?
A: The value was 0.016 ± 0.0062.

Q: UCCUCCUAGUGCUUGCAUAGUAUUUACAAA was tested. Which “pre-steady-state target cleavage rate” value did it give?
A: The value was 0.101 ± 0.019.

Q: Which “pre-steady-state target cleavage rate” value does the source give for UGGACCUACAGCUUGCAUAGUAUUUACAUA here?
A: The value was 0.155 ± 0.021.

Q: Which “pre-steady-state target cleavage rate” value does the source give for UCGACCUACAUCUUGCAUAGUAUUUAGUUA here?
A: Its value is 1.61 ± 0.043.

Q: With UGGACCUACAGCAUGCAUAGUAAUUAGUUA as the sequence, how does the “pre-steady-state target cleavage rate” value read?
A: Its value is 0.869 ± 0.063.

Q: UCCUGCAAGAGCUUGCAUAGUAUUUAGUUA was tested. Which “pre-steady-state target cleavage rate” value did it give?
A: Its value is 1.01 ± 0.097.

Q: With UCCUGGAACAGCAUGCAUAGUAUUUACUUA as the sequence, how does the “pre-steady-state target cleavage rate” value read?
A: Its value is 0.446 ± 0.045.

Q: For UCCUGGUACAGCUUGCAUUGUAUAUAGUUA, which “pre-steady-state target cleavage rate” value is on record?
A: Its value is 0.122 ± 0.024.

same assay, conditions: guide: L1MC piRNA 5'p-UAACUAAAUACUAUGCAAGCUGUAGGUCCU; auxiliary factor: none (no GTSF1)

Q: Which “pre-steady-state target cleavage rate” value does the source give for UCCACCUACAGCUUGCAAUGUAUUUAGUAA here?
A: Its value is 0.00289 ± 0.0021.

Q: For UGGACCUACAGCUUGCAUAGUACUUUAGUUA, which “pre-steady-state target cleavage rate” value is on record?
A: The value was 0.0182 ± 0.0046.

Q: How did the “pre-steady-state target cleavage rate” value turn out when UCCUGCUACUGCUUGCAUAGUAUUAAGUUA was run?
A: Its value is 0.0175 ± 0.0026.

Q: With UCCUGGAUGUGCUUGCAUAGUAUUUCGUUA as the sequence, how does the “pre-steady-state target cleavage rate” value read?
A: The value was 0.015 ± 0.0034.

Q: UCCUGCUACAGCUUGUAUAGUAUUUAGUUA was tested. Which “pre-steady-state target cleavage rate” value did it give?
A: The value was 0.0279 ± 0.0056.

Q: With UCCUGGUACACCUUGCAUACUAUUUAGUUA as the sequence, how does the “pre-steady-state target cleavage rate” value read?
A: The value was 0.00989 ± 0.0043.

Q: With UCCUGGAUGUGUUUGCAUAGUAUUUAGUUA as the sequence, how does the “pre-steady-state target cleavage rate” value read?
A: The value was 0.0281 ± 0.0056.

Q: Which “pre-steady-state target cleavage rate” value does the source give for UCCUGGUACAGGUUGCAUAGAAUUUAGUUA here?
A: Its value is 0.0108 ± 0.0039.

Q: For UCCUGGAUGUGCUUGCAUAGCAUUUAGUUA, which “pre-steady-state target cleavage rate” value is on record?
A: The value was 0.0145 ± 0.0039.

Q: Which “pre-steady-state target cleavage rate” value does the source give for UCCUCCUACAGCAUGCAUACUAUUUAGUUA here?
A: Its value is 0.0154 ± 0.0035.

Q: With UCCUGGAUGUGCUUGGAUAGUAUUUAGAUA as the sequence, how does the “pre-steady-state target cleavage rate” value read?
A: Its value is 0.00781 ± 0.0037.

Q: How did the “pre-steady-state target cleavage rate” value turn out when UCCUGGAUGUGCUUGGAUAGUUUUUAGUUA was run?
A: The value was 0.00996 ± 0.0031.

Q: With UCCUCCUAGUGCUUGCAUAGUAUUUACAAA as the sequence, how does the “pre-steady-state target cleavage rate” value read?
A: The value was 0.00215 ± 0.0017.

Q: For UGGACCUACAGCUUGCAUAGUAUUUACAUA, which “pre-steady-state target cleavage rate” value is on record?
A: The value was 0.0194 ± 0.0042.

Q: For UCGACCUACAUCUUGCAUAGUAUUUAGUUA, which “pre-steady-state target cleavage rate” value is on record?
A: The value was 0.077 ± 0.014.

Q: UGGACCUACAGCAUGCAUAGUAAUUAGUUA was tested. Which “pre-steady-state target cleavage rate” value did it give?
A: Its value is 0.0128 ± 0.0043.

Q: For UCCUGGAUGUCGAACGUAUCUAAUUAGUAA, which “pre-steady-state target cleavage rate” value is on record?
A: Its value is less than 0.0001.

Q: UCCUGCAAGAGCUUGCAUAGUAUUUAGUUA was tested. Which “pre-steady-state target cleavage rate” value did it give?
A: The value was 0.0403 ± 0.01.

Q: Which “pre-steady-state target cleavage rate” value does the source give for UCCUGGAACAGCAUGCAUAGUAUUUACUUA here?
A: The value was 0.0279 ± 0.0094.

Q: With UCCUGGUACAGCUUGCAUUGUAUAUAGUUA as the sequence, how does the “pre-steady-state target cleavage rate” value read?
A: The value was 0.012 ± 0.0039.
